Reference: article PMC9574860, “Chemical Toolkit for PARK7: Potent, Selective, and High-Throughput” (Journal of Medicinal Chemistry, 2022)
The whole screen tested about 7,900 compounds, of which about 400 (5.1%) showed an effect of 50% or more. Some of the results follow.

Target: Parkinson's disease protein 7 (PARK7/DJ1) (human, UniProt Q99497)
Experiment: primary screen, percent inhibition; read as competition with a fluorescent probe by fluorescence polarization; higher = more effect of the substance
Conditions: 100 µM
Summary of the method: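 Fluorescence-polarization probe displacement (JYQ-107, 20 nM final, 2 h) after 2 h preincubation of PARK7 (0.2 μM final) with each fragment at 100 μM final. Read-out ex/em 480/520 nm; remaining activity derived from FP signal loss relative to reference controls.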

Parkinson's disease protein 7 (PARK7/DJ1), sequence (Q99497 whole entry, looked up): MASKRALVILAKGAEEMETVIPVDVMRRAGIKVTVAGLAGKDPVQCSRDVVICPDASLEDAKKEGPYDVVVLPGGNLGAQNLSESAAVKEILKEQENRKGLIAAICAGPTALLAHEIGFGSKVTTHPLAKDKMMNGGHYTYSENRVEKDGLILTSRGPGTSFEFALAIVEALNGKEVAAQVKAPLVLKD

| SMILES | Inhibition % [%] |
| --- | --- |
| CC1CC(Sc2ncc(-c3ccccc3)n2C)C(=O)O1 (stereo not shown) | 3.52 |
| CN(C(=O)CC1OCCCO1)C1CCCCC1 | 3.82 |
| O=C1CC(CC(=O)N2CCC3(CCCC3)CC2)CO1 (stereo not shown) | -0.128 |
| Cc1nc(CCNC(=O)c2cccnc2S)sc1C | 2.24 |
| O=c1c2cccnc2nc(S)n1CC1CCCO1 (stereo not shown) | 3.76 |
| Cc1[nH]c2ccccc2c1C(=O)CCl | 6.53 |
| COc1ccc(C#N)nn1 | 6.61 |
| O=C(O)CCc1ccc(S(=O)(=O)F)cc1 | 82.3 |
| CC(=O)Nc1c(C)cc(C)c(C(=O)CCl)c1C | 14 |
| C#CC(=O)c1cccc(C(F)(F)F)c1 | 8.24 |
| C=CC(=O)NC1CC2(C1)CC2(F)F (stereo not shown) | 6.68 |
| C=CC(=O)NC1CC(=O)N(CC)C1 (stereo not shown) | 8.72 |
| O=C(C=Cc1nc2ccccc2s1)N1CCOCC1 | -0.634 |
| O=C(CCl)N1CCc2ccccc21 | -0.66 |
| Cc1ccccc1CN(C)C(=O)CCl | 56.6 |
| C=CC(=O)NC1CC(F)(F)C1 | 3.5 |
| O=C(CCl)c1c[nH]c2nccc(Cl)c12 | 2.3 |
| O=C(CCl)Nc1ccc(Br)cc1C(=O)O | 46.1 |
| CN(C(=O)CCl)C1CC1 | -0.367 |
| COCC(=O)Nc1ccc(S(=O)(=O)F)cc1 | 13.6 |
| CC(c1ccc(Cl)cc1)N(C)C(=O)CCl (stereo not shown) | 98 |
| N#CN(Cc1ccon1)c1ccc(F)c(Cl)c1 | 6.11 |

| SMILES | Inhibition % [%] |
| --- | --- |
| C=CC(=O)N(C)CC1=CCCOC1 | 1.26 |
| C=CC(=O)N(C)C1CCCc2nc(C)sc21 (stereo not shown) | 7.33 |
| C=CC(=O)N1CC(C)OC2(CCOC2C)C1 (stereo not shown) | 5.89 |
| CC1(C)OB(c2ccccc2Br)OC1(C)C | 4.04 |
| C=CC(=O)NC1CCc2c(Cl)cccc21 (stereo not shown) | 0.654 |
| C=CC(=O)N1CCN(C)C(c2nc(C3CC3)no2)C1 (stereo not shown) | 13 |
| C=CC(=O)N1CC(OC(C)(C)C)C1 | 11.1 |
| Cc1ccc(-n2c(C)nnc2SC2CCOC2=O)cc1 (stereo not shown) | 10.6 |
| C=CC(=O)NC(C)c1csnn1 (stereo not shown) | 10 |
| OB(O)c1cccc(COC2CCOC2)c1 (stereo not shown) | 1.29 |
| Cc1n[nH]cc1Nc1ccc(Cl)c(C#N)n1 | 12.8 |
| CCc1ccccc1N(C(C)=O)C1C=CS(=O)(=O)C1 (stereo not shown) | 7.9 |
| C=CS(=O)(=O)c1ccccc1 | 9.43 |
| N#CN(CC(=O)NCC(F)(F)F)c1ccccc1 | 3.12 |
| O=C1CCC(=O)N1Cc1cn(-c2ccc(F)c(Cl)c2)nn1 | 9 |
| Cc1cccc(C)c1NC(=O)N[C@@H]1COC(=O)C1 | 7.98 |
| O=C(NCC(O)c1ccncc1)c1cccnc1S (stereo not shown) | 14.1 |
| CC(=O)Nc1ccc(OC(=O)N(C)c2ccccc2)cc1 | 9.43 |
| OB(O)c1ccc(OC2CCCCC2)cc1 | 2.79 |
| O=C1CN(C(=O)C=Cc2cnc3ccccc3n2)CCN1 | 10.9 |
| O=C(C1CCOCC1)N1CCC(S(=O)(=O)F)CC1 | 30.7 |
